Source: PubChem BioAssay (NCATS)
Results filed as inconclusive are left out. Calls come from the whole dose curve; as a rule, active = well fitted curve in the direction sought with a large enough effect; inconclusive = small, poorly fitted or top-dose-only effect, or another doubt; inactive = no such curve, though single readings can be large; an effect the other way counts as inactive or inconclusive. More than one record can exist for a structure, and the calls need not agree. Not every entry of the source has a single result; some have several. The other results are left out here. There may be further records. The values listed for one entry repeat one measurement across runs, samples, wells, individuals or studies. Records carry a tag for their origin. Letters count within one entry. Brackets with × say how often a value occurs here.

What was measured:
[1] = qHTS of pediatric cancer cell lines to identify multiple opportunities for drug repurposing: Primary screen for A673 cells (AID 1347092); note: nearly all actives have a fitted effect of over 45% in size
Procedure, shortened: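 Cells are plated, rested 5 h, dosed by pintool, incubated 48 h, then lysed with CellTiter-Glo and read by luminescence. DMSO is the neutral control; bortezomib at 2.3 uM final is the positive control.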

[2] = qHTS of pediatric cancer cell lines to identify multiple opportunities for drug repurposing: Primary screen for SK-N-MC cells (AID 1347093)
[3] = qHTS of pediatric cancer cell lines to identify multiple opportunities for drug repurposing: Primary screen for NB1643 cells (AID 1347099); note: nearly all actives have a fitted effect of over 50% in size
[4] = qHTS of pediatric cancer cell lines to identify multiple opportunities for drug repurposing: Primary screen for DAOY cells (AID 1347090); note: nearly all actives have a fitted effect of over 55% in size
Procedure, shortened: (§1)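 Viability measured as metabolically active cells via CellTiter-Glo luminescence following 48 hours of compound exposure, 11-point dilutions in confirmatory testing. 500-1,000 cells/well plated 5 hours before dosing; controls were DMSO and 2.3 µM bortezomib.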

[5] = qHTS of pediatric cancer cell lines to identify multiple opportunities for drug repurposing: Primary screen for Rh30 cells (AID 1347107); note: nearly all actives have a fitted effect of over 75% in size
Procedure, shortened: (§2)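 Viability after 48 h compound treatment at 37C, 500-1,000 cells/well, read as ATP luminescence with CellTiter-Glo. Primary screens used 11-point (MIPE, 0.78 nM-46 µM) or 8-point (NPC, 0.59 nM-46 µM) final concentrations; follow-up screens used 11-point dilutions.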

[6] = qHTS of pediatric cancer cell lines to identify multiple opportunities for drug repurposing: Primary screen for Rh41 cells (AID 1347108); note: nearly all actives have a fitted effect of over 70% in size
Procedure, shortened: (§3)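 Following a 5-hour attachment period, cells at 500-1,000/well received compounds and were cultured for 48 hours. CellTiter-Glo was added and luminescence read to estimate viable, metabolically active cells.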

[7] = qHTS of pediatric cancer cell lines to identify multiple opportunities for drug repurposing: Primary screen for TC32 cells (AID 1347089); note: nearly all actives have a fitted effect of over 60% in size
Procedure, shortened: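 Measured quantity: luminescence from CellTiter-Glo, reflecting metabolically active TC32 cells following 48 h of compound. Curves came straight from multi-point titrations, with 8 or 11 points in primary and 11 in confirmatory screening.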

[8] = tested on: Zika virus NS2B-NS3 protease (linked construct); assay: Confirmatory screen NINDS AMC qHTS for Zika virus inhibitors (AID 1347152); note: nearly all actives have a fitted effect of over 70% in size
Procedure, shortened: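 In this dose-response qHTS, AMC release from 10 microM Bz-Nle-KRR-AMC by 1 nM linked protease is measured over 15 minutes (about 20% conversion) at pH 8.0. Percent inhibition is fitted to a 4-parameter Hill curve.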

[9] = tested on: Zika virus NS2B-NS3 protease (unlinked complex); assay: Confirmatory screen GU AMC qHTS for Zika virus inhibitors (AID 1347153); note: nearly all actives have a fitted effect of over 70% in size
Procedure, shortened: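 Unlinked enzyme 25 nM, Tris pH 8.0/0.01% Tween 20; cpd 15 min RT, dark; + AMC substrate 10 µM (Km 18.3 µM); 340/450 nm read at t0 and 15 min; % inhibition → 4-param fit.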

[10] = Confirmatory screen NINDS Rhodamine qHTS for Zika virus inhibitors (AID 1347161); note: nearly all actives have a fitted effect of over 60% in size
Procedure, shortened: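 Each compound, titrated, sat 15 min with 25 nM linked protease before 1.5 microM Rhodamine110 substrate went in. Fluorescence gain over the next 15 min, in pH 8.0 Tris with Tween 20, gave Hill-fitted curves.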

[11] = Tertiary RLuc qRT-PCR qHTS assay for Zika virus inhibitors (AID 1347169); note: nearly all actives have a fitted effect of over 55% in size
Procedure, shortened: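 Orthogonal cell-based infection assay using recombinant ZIKV-RLuc (Cambodian) in Vero cells; compound added prior to virus at MOI 1-2. Incubation lasts 48-72 hrs at 37 degrees C before live-cell Renilla substrate is added and luminescence measured.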

[12] = qHTS of pediatric cancer cell lines to identify multiple opportunities for drug repurposing: Primary screen for NB-EBc1 cells (AID 1347095)
[13] = qHTS of pediatric cancer cell lines to identify multiple opportunities for drug repurposing: Primary screen for SJ-GBM2 cells (AID 1347091)
Procedure, shortened: as §1

[14] = qHTS of pediatric cancer cell lines to identify multiple opportunities for drug repurposing: Primary screen for LAN-5 cells (AID 1347100)
Procedure, shortened: as §2

[15] = qHTS of pediatric cancer cell lines to identify multiple opportunities for drug repurposing: Primary screen for MG 63 (6-TG R) cells (AID 1347105); note: nearly all actives have a fitted effect of over 50% in size
Procedure, shortened: as §3

[16] = qHTS of pediatric cancer cell lines to identify multiple opportunities for drug repurposing: Primary screen for SK-N-SH cells (AID 1347098); note: nearly all actives have a fitted effect of over 65% in size
Procedure, shortened: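 Cells (500-1,000/well) rested 5 h, then received compounds for 48 h; metabolically active cells were measured by CellTiter-Glo luminescence. Final concentrations spanned up to 46 µM (MIPE, 11-point) or 0.59 nM-46 µM (NPC, 8-point) in primary screens, 11-point in follow-ups.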

[17] = tested on: Zika virus NS2B-NS3 protease; assay: Primary screen GU AMC qHTS for Zika virus inhibitors (AID 1347154); note: nearly all actives have a fitted effect of over 70% in size
Procedure, shortened: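 Unlinked Zika NS2B hydrophilic domain–NS3 protease complex at 25 nM in 10 mM Tris-HCl pH 8.0, 0.01% Tween 20, with an AMC peptide substrate. Fluorescence change (340/450 nm) over 15 min at room temperature, normalized to controls, fitted to 4-parameter Hill.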

[18] = qHTS of pediatric cancer cell lines to identify multiple opportunities for drug repurposing: Primary screen for RD cells (AID 1347104); note: nearly all actives have a fitted effect of over 55% in size
Procedure, shortened: as §3

[19] = qHTS of pediatric cancer cell lines to identify multiple opportunities for drug repurposing: Primary screen for Saos-2 cells (AID 1347097); note: nearly all actives have a fitted effect of over 40% in size
Procedure, shortened: as §3
Potency is the fitted concentration of half-maximal effect.

Structure (SMILES): COc1ccc2nc(S(=O)Cc3ncc(C)c(OC)c3C)[nH]c2c1 (stereo not given)
- Potency [1]: inactive [sample A] and active: 18.7 µM [sample B]
- Potency [2]: inactive [sample A] and active: 20.9 µM [sample B]
- Potency [3]: inactive [sample A] and active: 23.5 µM [sample B]

Structure (SMILES): CC(=O)Oc1ccccc1C(=O)O
- Potency [4]: inactive [sample A] and active: 9.35 µM [sample B]
- Potency [5]: inactive [sample A] and active: 11.8 µM [sample B]
- Potency [6]: inactive [sample A] and active: 23.5 µM [sample B]

Structure (SMILES): Cc1[nH]c(=O)c(C#N)cc1-c1ccncc1
- Potency [7]: active: 6.58 µM [sample A] and inactive [sample B] and inactive [sample C]
- Potency [2]: active: 4.69 µM [sample A] and inactive [sample B] and inactive [sample C]
- Potency [3]: active: 16.6 µM [sample A] and inactive [sample B] and inactive [sample C]

Structure (SMILES): CC(C)(Sc1ccc(CCN(CCCCC2CCCCC2)C(=O)NC2CCCCC2)cc1)C(=O)O
- Potency [8]: inactive [sample A] and active: 13.9 µM [sample B]
- Potency [9]: inactive [sample A] and active: 13.9 µM [sample B]
- Potency [10]: inactive [sample A] and active: 2.48 µM [sample B]
- Potency [11]: inactive [sample A] and active: 14.7 µM [sample B]

Structure (SMILES): O=NN(CCCl)C(=O)NCCCl
- Potency [12]: inactive [sample A] and active: 18.7 µM [sample B]

Structure (SMILES): Cc1oncc1C(=O)Nc1ccc(C(F)(F)F)cc1
- Potency [1]: inactive [sample A] and active: 18.7 µM [sample B]

Structure (SMILES): C#Cc1cccc(Nc2ncnc3cc(OCCOC)c(OCCOC)cc23)c1
- Potency [13]: active: 18.7 µM [sample A] and inactive [sample B]
- Potency [1]: active: 935 nM [sample A] and inactive [sample B]
- Potency [12]: active: 2.96 µM [sample A] and inactive [sample B]
- Potency [14]: active: 7.43 µM [sample A] and inactive [sample B]

Structure (SMILES): Cc1ccc(-n2nc(C(C)(C)C)cc2NC(=O)Nc2ccc(OCCN3CCOCC3)c3ccccc23)cc1
- Potency [4]: active: 5.9 µM [sample A] and inactive [sample B]
- Potency [3]: active: 2.96 µM [sample A] and inactive [sample B]
- Potency [15]: active: 18.7 µM [sample A] and inactive [sample B]

Structure (SMILES): Nc1nc2c(ncn2COCCO)c(=O)[nH]1
- Potency [2]: inactive [sample A] and active: 5.26 µM [sample B]

Structure (SMILES): NC(N)=NC(=O)c1nc(Cl)c(N)nc1N
- Potency [4]: active: 18.7 µM [sample A] and inactive [sample B]
- Potency [1]: active: 9.35 µM [sample A] and inactive [sample B]
- Potency [2]: active: 1.48 µM [sample A] and inactive [sample B]
- Potency [16]: active: 30.4 µM [sample A] and inactive [sample B]
- Potency [3]: active: 14.8 µM [sample A] and inactive [sample B]
- Potency [17]: inactive [sample A] and active: 18.9 µM [sample B] and active: 31.6 µM [sample C]

Structure (SMILES): O=c1[nH]cnc2[nH]ncc12
- Potency [2]: inactive [sample A] and active: 18.7 µM [sample B]

Structure (SMILES): C1COC(NC(C2CC2)C2CC2)=N1
- Potency [2]: active: 23.5 µM [sample A] and inactive [sample B]

Structure (SMILES): N=c1nc(N2CCCCC2)cc(N)n1O
- Potency [1]: active: 18.7 µM [sample A] and inactive [sample B]
- Potency [2]: active: 33.2 µM [sample A] and inactive [sample B]
- Potency [18]: active: 33.2 µM [sample A] and inactive [sample B]
- Potency [17]: active: 34.1 µM and inactive (3×) [separate samples]

Structure (SMILES): O=C1CCc2cc(OCCCCc3nnnn3C3CCCCC3)ccc2N1
- Potency [2]: inactive [sample A] and active: 29.6 µM [sample B]
- Potency [3]: inactive [sample A] and active: 16.6 µM [sample B]

Structure (SMILES): OC(CN1CCC(Cc2ccc(F)cc2)CC1)c1ccc(Cl)cc1 (stereo not given)
- Potency [2]: active: 20.9 µM [sample A] and inactive [sample B]
- Potency [12]: inactive [sample A] and active: 16.8 µM [sample B]

Structure (SMILES): COc1ccc([C@@H]2CC(=O)c3c(O)cc(O[C@@H]4O[C@H](CO[C@@H]5O[C@@H](C)[C@H](O)[C@@H](O)[C@@H]5O)[C@@H](O)[C@H](O)[C@@H]4O)cc3O2)cc1O
- Potency [1]: inactive [sample A] and active: 9.35 µM [sample B]

Structure (SMILES): CCOC(=O)N1CCC(=C2c3ccc(Cl)cc3CCc3cccnc32)CC1
- Potency [19]: inactive [sample A] and active: 26.6 µM [sample B]
- Potency [3]: inactive [sample A] and active: 23.7 µM [sample B]

Structure (SMILES): CCCCNc1cc(C(=O)O)cc(S(N)(=O)=O)c1Oc1ccccc1
- Potency [17]: inactive [sample A] and active: 27.1 µM [sample B]

Structure (SMILES): CCOC(=O)C1=C[C@]2(CC)CCCN3CCc4c(n1c1ccccc41)[C@@H]32
- Potency [1]: active: 18.7 µM [sample A] and inactive [sample B]
- Potency [19]: active: 37.2 µM [sample A] and inactive [sample B]
- Potency [16]: active: 24.1 µM [sample A] and inactive [sample B]
- Potency [14]: active: 23.5 µM [sample A] and inactive [sample B]
- Potency [18]: active: 29.6 µM [sample A] and inactive [sample B]
- Potency [15]: active: 23.5 µM [sample A] and inactive [sample B]

Structure (SMILES): Cc1cc2c(C(C)C)c(O)c(O)c(C=O)c2c(O)c1-c1c(C)cc2c(C(C)C)c(O)c(O)c(C=O)c2c1O
- Potency [17]: inactive [sample A] and active: 6.31 µM [sample B]
